The inconclusive results got no clear call from the source; some entries with a clear call stand among them for comparison. Where the call is inconclusive, the potency comes from a doubtful curve fit. Activity calls are given as the source filed them. Calls follow the shape of the dose curve; as a rule, active = well fitted cell-killing curve with a large enough effect; inconclusive = small, poorly fitted or top-dose-only effect; inactive = flat fitted curve, though single readings scatter.
Assay: NCATS anti-infectives library activity on HEK293 viability as a counter-qHTS vs the C. elegans viability qHTS (AID 1745854)
Settings: HEK293 viability counter-screen; activity change, negative = cytotoxicity: at 41.8 µM (top of the series) unless noted
Description: Assay Development and Screening Technology Laboratory (ADST)
National Center for Advancing Translational Sciences (NCATS), Rockville, MD
National Institute of Health (NIH), Bethesda, Maryland
Caenorhabditis elegans has helped elucidate the evolutionarily conserved genetics underlying pathways and cellular processes implicated in human disease and may be ideally positioned to reveal novel pharmacological properties of exiting drugs. The organism's short life cycle and microscopic size is applicable to the technical requirements of high-throughput screening. Here a quantitative high-throughput screening (qHTS)-based forward chemical biology platform has been developed using C. elegans. 384-well microtiter plate laser scanning cytometry was used in the rapid detection and quantification of the fluorescent protein-encoded phenotype to score worm viability. In a proof-of-concept study, the pharmacological qHTS profile obtained from a library of 643 anti-infective compounds.
1. Inglese, J., Auld, D. S., Jadhav, A., Johnson, R. L., Simeonov, A., Yasgar, A., Zheng, W., and Austin, C. P. (2006) Quantitative high-throughput screening: A titration-based approach that efficiently identifies biological activities in large chemical libraries, P Natl Acad Sci USA 103, 11473-11478.
2. Auld, D. S., Johnson, R. L., Zhang, Y. Q., Veith, H., Jadhav, A., Yasgar, A., Simeonov, A., Zheng, W., Martinez, E. D., Westwick, J. K., Austin, C. P., and Inglese, J. (2006) Fluorescent protein-based cellular assays analyzed by laser-scanning microplate cytometry in 1536-well plate format, Method Enzymol 414, 566-589.
3. Zuck, P., Lao, Z., Skwish, S., Glickman, J. F., Yang, K., Burbaum, J., and Inglese, J. (1999) Ligand-receptor binding measured by laser-scanning imaging, Proc Natl Acad Sci U S A 96, 11122-11127.
PROTOCOL TABLE (as described by Inglese J, Shamu CE and Guy RK. 2007)
SEQUENCE No. (e.g., 1, 2, 3, etc.); […] (e.g., C. elegans, Compounds, Incubation, Read, etc.); VALUE and DESCRIPTION.
1. Compounds. Library compounds and digitonin control added at 25 nL per well to 7 assay ready 1536-well Greiner white/solid bottom high base, TC plates and two DMSO control plates, transferred by Echo acoustic dispenser.
2. Cells. Seed 1500 HEK293 per well in 6 uL into assay ready Greiner 1536-well plates.
3. Incubation. Incubate plated cells with compounds at 37C in 5% CO2, 95% RH for 24 hr.
4. Reagent. Add 4 uL of CellTiter-Glo reagent from Promega per well of Greiner 1536-well plates with BioRAPTR FRD.
5. Incubation. Incubate treated cells at room temperature for 10 min., protect from light.
6. Detector. CellTiter-Glo luminescence measured using CCD-based camera (Viewlux) with settings as follows: Exposure, 1 sec; Gain, High; Speed, Slow; Binning, 2X.
NOTES (numbers refer to Sequence numbers above; values are from representative experiments)
1. NIH Anti-Infectives library pre-dispensed into 7 assay ready 1536-well Greiner white/solid bottom high base, TC plates with Echo 555 acoustic dispenser. Most compounds dispensed at 10 mM high concentration and plated in 7-pt 1:5 inter-plate titration at 25 nl / well for a final assay concentration range of 41.7 uM - 2.7 nM. Two 1536-well Greiner assay plates of DMSO plated as screening controls to be read at the beginning and the end of the screen. Controls included DMSO vehicle control added at 25 nl/well to each well of column 1 and […] (83.3 uM final assay concentration), and Digitonin titrated 1:2 at 25 nl/ well to column 4 in duplicate for a final assay concentration range of 83.3 uM - 2.5 nM.
2. HEK293 cells grown for 48 hr in one T175 culture flask in DMEM high glucose media supplemented with 10% FBS and 1% Pen/Strep antibiotic. Cells trypsinized and diluted in 10 ml supplemented media, strained through 40 µm cell strainer, and diluted to a total volume of 40 ml with supplemented media. […]
With `Oc1ccc(OC2CCCCO2)cc1` (stereo not given) the Potency was active: 14.1 µM. With `Cc1cc(/C=C/C#N)cc(C)c1Nc1ccnc(Nc2ccc(C#N)cc2)n1` the Potency was inconclusive: 31.6 µM [cytotoxic, single point]. For `C/C(=N\NC(=O)C(NC(=O)c1ccccc1)c1n[nH]c(=O)c2ccccc12)c1cccc(Br)c1` (stereo not given), the “activity change, negative = cytotoxicity” value was inactive: 9.64%. With `CC#Cc1cncc(-c2ccc3c(c2)[C@@]2(N=C(C)C(N)=N2)C2(CCC(OC)CC2)C3)c1` (stereo not given in full) the “activity change, negative = cytotoxicity” value was inactive: -0.747%. For `CC(=O)c1cc([N+](=O)[O-])c(Sc2ccc(F)cc2F)s1`, the Potency was inconclusive: 11.2 µM [cytotoxic, partial curve, poor fit]. For `Cc1cc(/C=C\c2ccc3cc(N(C)C)ccc3[n+]2C)c(C)n1-c1ccccc1`, the Potency was inconclusive: 11.2 µM [cytotoxic, partial curve, poor fit]. In the case of `O=C(/C=C/c1ccc(O)c(O)c1)O[C@@H]1CC(O)(C(=O)O)C[C@@H](OC(=O)/C=C/c2ccc(O)c(O)c2)C1O` (stereo not given in full), the “activity change, negative = cytotoxicity” value is reported as inactive: -4.07%. With `CCCC(C)NC(=O)c1ccc(Cl)c(Cl)c1` (stereo not given) the Potency was inconclusive: 15.8 µM [cytotoxic, single point]. In the case of `O=[N+]([O-])c1ccc(S(=O)(=O)N2CCN(c3ccnc4cc(Cl)ccc34)CC2)c([N+](=O)[O-])c1`, the Potency is reported as active: 10 µM. For `O[C@H]1[C@H]2c3cc4c(cc3CN3CCC(=C[C@@H]1O)[C@H]23)OCO4`, the Potency was inconclusive: 2 µM [cytotoxic, full curve]. In the case of `C(=N\Nc1nc(Nc2ccccc2)nc(N2CCOCC2)n1)/c1c[nH]c2ccccc12`, the Potency is reported as inconclusive: 8.91 µM [cytotoxic, partial curve, poor fit]. In the case of `CC(C)C[C@H](NC(=O)[C@H](Cc1ccccc1)C[C@@H](O)[C@H](Cc1ccccc1)NC(=O)OC(C)(C)C)C(=O)N[C@@H](Cc1ccccc1)C(N)=O`, the Potency is reported as inconclusive: 11.2 µM [cytotoxic, partial curve]. With `CCCCCCCCCCCCCCCCn1cc[n+](Cc2ccccc2)c1C` the Potency was active: 11.2 µM. In the case of `O=c1c(O)c(-c2ccc(O)cc2)oc2ccccc12`, the Potency is reported as inconclusive: 31.6 µM [cytotoxic, single point]. In the case of `CC(=O)N[C@@H](CC(C)C)C(=O)N[C@@H](CC(C)C)C(=O)N[C@H](C=O)CCCN=C(N)N`, the “activity change, negative = cytotoxicity” value is reported as inactive: -6.31%. In the case of `Cc1cc(C#N)cc(C)c1Oc1nc(Nc2ccc(C#N)cc2)nc(N)c1Br`, the Potency is reported as inconclusive: 35.5 µM [cytotoxic, partial curve, poor fit]. With `CCCCN(Cc1ccc(C(=O)NO)cc1)C(=O)Nc1ccccc1` the Potency was inconclusive: 10 µM [cytotoxic, partial curve, poor fit]. In the case of `COc1cc2c(c(OC)c1OC)-c1c(cc(OC)c(OC)c1OC)CC(C)C(C)C2` (stereo not given), the “activity change, negative = cytotoxicity” value is reported as inactive: -20.3%. In the case of `CC1(C)CN2C(CSC(=NC3CCCCC3)NC3CCCCC3)=CSC2=N1`, the Potency is reported as inconclusive: 12.6 µM [cytotoxic, partial curve, poor fit]. For `CCC(CC)COC(=O)[C@H](C)N[P@](=O)(OC[C@H]1O[C@@](C#N)(c2ccc3c(N)ncnn23)[C@H](O)[C@@H]1O)Oc1ccccc1`, the Potency was inconclusive: 10 µM [cytotoxic, partial curve]. In the case of `N#C[C@@H]1C[C@@H]2C[C@@H]2N1C(=O)[C@@H](N)C12CC3CC(CC(O)(C3)C1)C2`, the “activity change, negative = cytotoxicity” value is reported as inactive: -14.4%. In the case of `COC(=O)[C@H]1[C@@H](O)[C@@]2(O)c3c(OC)cc(O[C@@H]4O[C@@H]([C@H](O)CO)CO[C@H]4OC)cc3O[C@@]2(c2ccc(OC)cc2)[C@@H]1c1ccccc1`, the Potency is reported as inconclusive: 0.447 µM [cytotoxic, full curve, poor fit]. For `CC(C)CS(=O)(=O)c1oc(-c2ccc(F)cc2)nc1S(=O)(=O)c1ccccc1`, the Potency was active: 3.98 µM. In the case of `CC(C)C[C@H](NC(=O)CNC(=O)c1cc(Cl)ccc1Cl)B1OC(=O)C(CC(=O)O)(CC(=O)O)O1`, the Potency is reported as inconclusive: 0.126 µM [cytotoxic, full curve, poor fit]. In the case of `Cc1cccc(C)c1OCC(=O)NC(Cc1ccccc1)C(O)CC(Cc1ccccc1)NC(=O)C(C(C)C)N1CCCNC1=O` (stereo not given), the Potency is reported as inconclusive: 31.6 µM [cytotoxic, single point]. For `C[C@H](NC(=O)[C@H](Cc1ccccc1)NC(=O)OCc1ccccc1)C(=O)CF`, the “activity change, negative = cytotoxicity” value was inactive: -6.23%. For `COc1ccc2sc(NC(c3ccc(OC(F)F)cc3)c3ccc4cccnc4c3O)nc2c1` (stereo not given), the Potency was inconclusive: 2.24 µM [cytotoxic, full curve]. With `NC(=O)c1cccc2[nH]c(-c3ccc([C@@H]4CCCN4)cc3F)nc12` the “activity change, negative = cytotoxicity” value was inactive: -17.3%. With `Cc1cccc(C)c1N(CC(=O)Nc1ccc(-c2ncon2)cc1)C(=O)C1CCS(=O)(=O)CC1` the “activity change, negative = cytotoxicity” value was inactive: -12.7%. For `CCCCCCCCCCCCCCCCOc1nc2ccc(C)cc2c(=O)o1`, the “activity change, negative = cytotoxicity” value was inactive: 18.3%. For `CCCC[C@@H](C=O)NC(=O)[C@H](CC(C)C)NC(=O)[C@H](CC(C)C)NC(C)=O`, the Potency was inconclusive: 12.6 µM [cytotoxic, single point]. In the case of `COc1ccc(-c2oc3cc(OC)c(OC)c(O)c3c(=O)c2OC)cc1O`, the Potency is reported as inconclusive: 20 µM [cytotoxic, partial curve, poor fit]. In the case of `CC(C)=C1C/C=C(\C)CC/C=C(\C)CC1=O`, the “activity change, negative = cytotoxicity” value is reported as inactive: 11.8%. For `CC(=O)c1cc([N+](=O)[O-])c(Sc2cccc(Cl)c2Cl)s1`, the Potency was inconclusive: 11.2 µM [cytotoxic, partial curve]. With `C=CC(=O)N1C/C(=C\c2ccc([N+](=O)[O-])cc2)C(=O)/C(=C/c2ccc([N+](=O)[O-])cc2)C1` the Potency was active: 1.41 µM. In the case of `CC(C)c1cnn2c(NCc3ccccc3-n3cccn3)nc(OC3CCCNC3)nc12` (stereo not given), the “activity change, negative = cytotoxicity” value is reported as inactive: -26.4%. With `CC(C)CN(C[C@@H](O)[C@H](Cc1ccccc1)NC(=O)O[C@H]1CCOC1)S(=O)(=O)c1ccc(N)cc1` the “activity change, negative = cytotoxicity” value was inactive: 8.34%. In the case of `Cn1nnnc1Sc1ncnc2scc(-c3cccc(S(C)(=O)=O)c3)c12`, the Potency is reported as inconclusive: 22.4 µM [cytotoxic, single point]. With `O=C(OC1OC2COC(=O)c3cc(O)c(O)c(O)c3-c3c(cc(O)c(O)c3O)C(=O)OC(C2O)C1O)c1cc(O)c(O)c(O)c1` (stereo not given) the Potency was inconclusive: 14.1 µM [cytotoxic, partial curve, poor fit]. For `Nc1nccc2c1ncn2[C@@H]1O[C@H](CO)[C@@H](O)[C@H]1O`, the Potency was inconclusive: 0.1 µM [rising, full curve, poor fit].
% is scaled to controls: 0 for no effect and ±100 for the full control effect; potency is read from the fitted curve at half-maximal effect; tags tell the direction and shape of the fitted curve.
